Experimental data from PubChem BioAssay AID2147 (National Center for Advancing Translational Sciences (NCATS), 2009).
Values joined by “and” are separate entries in the source; they are usually repeats but may differ in a detail not shown here. Equal entries are not always repeated. Screen size: about 230,000 compounds; about 3,600 (1.6%) were called active. This list was built around the results that the source calls inconclusive (neither active nor inactive); the mix of calls is not that of the screen. Calls come from the whole dose curve; as a rule, active = well fitted inhibition curve with a large enough effect (not every such curve was filed as active); inconclusive = small, poorly fitted or top-dose-only effect, or another doubt; inactive = no such curve, though single readings can be large or run the other way. A potency beside an inconclusive call is a rough fit, not a confirmed value.

Target: Lysine-specific demethylase 4E (Homo sapiens) (UniProt B2RXH2)
Chain of UniProt B2RXH2 (B2RXH2 whole entry, looked up, the tested form may be a part): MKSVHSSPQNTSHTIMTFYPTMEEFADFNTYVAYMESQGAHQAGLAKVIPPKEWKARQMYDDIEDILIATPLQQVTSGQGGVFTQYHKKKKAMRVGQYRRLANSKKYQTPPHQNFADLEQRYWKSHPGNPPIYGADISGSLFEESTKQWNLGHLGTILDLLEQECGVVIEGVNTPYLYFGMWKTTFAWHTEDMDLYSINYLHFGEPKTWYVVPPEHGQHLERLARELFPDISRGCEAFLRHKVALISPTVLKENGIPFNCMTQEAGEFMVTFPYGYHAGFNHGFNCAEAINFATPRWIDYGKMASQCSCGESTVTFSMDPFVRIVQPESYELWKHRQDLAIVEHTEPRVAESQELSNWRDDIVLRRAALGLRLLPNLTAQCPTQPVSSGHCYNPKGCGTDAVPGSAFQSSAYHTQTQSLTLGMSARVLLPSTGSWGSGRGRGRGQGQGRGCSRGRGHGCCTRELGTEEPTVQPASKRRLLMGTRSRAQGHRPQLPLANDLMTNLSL
Assay: qHTS Assay for Inhibitors of Human Jumonji Domain Containing 2E (JMJD2E)
Conditions: JMJD2E catalytic domain, FDH-coupled NADH fluorescence (FDH is formaldehyde dehydrogenase); series mostly up to 57.1 µM
Note: nearly all actives have a fitted effect of over 50% in size.
Potency is the fitted concentration of half-maximal effect; tags give direction and shape of the fitted curve.

Compound | Potency
Cc1ccc(OCC(=O)Nc2ccc(S(=O)(=O)Nc3ccccn3)cc2)cc1 | inconclusive: 31.6 µM [inhibitor, partial curve]
COc1ccccc1Nc1n[nH]c(=S)s1 | active: 20 µM
COc1ccc(-c2c(C)c3ccc(OCC(C)=O)cc3oc2=O)cc1 | inconclusive: 31.6 µM [inhibitor, partial curve]
N/C(=N\OC(=O)N1c2ccccc2Sc2ccccc21)c1ccccc1 | inactive
CCCCC1=CC2=CC(=O)C(C)(OC(=O)CC)C(=O)C2=CN1Cc1ccccc1 (centres undefined) | inactive and inconclusive: 3.55 µM [inhibitor, single point]
CC(=O)c1cc2c(O)c(O)ccc2o1 | inconclusive: 35.5 µM [inhibitor, single point]
Cc1nn(C)c(C)c1S(=O)(=O)NC1CCCc2ccccc21 (centres undefined) | inactive
CC(C)(C)c1nnc2sc(SCC(=O)N3CCCc4ccccc43)nn2c1=O | inconclusive: 35.5 µM [inhibitor, single point]
CC(C)Nc1nc2ccccc2c(=O)[nH]1 | inconclusive: 28.2 µM [inhibitor, partial curve]
CCCCn1c(=NC(=O)c2cccnc2)c(C(=O)OCC)cc2c(=O)n3ccccc3nc21 | inconclusive: 28.2 µM [inhibitor, partial curve]
O=C(Cn1cnc2ccccc2c1=O)NNC(=O)c1ccccc1 | inconclusive: 35.5 µM [inhibitor, single point]
COc1ccc2cc1Oc1ccc(cc1)C[C@H]1c3cc(c(OC)cc3CCN1C)Oc1c(OC)c(OC)cc3c1[C@H](C2)N(C)CC3 | inactive
COc1cc(C=O)ccc1OC(=O)c1ccncc1 | inconclusive: 6.31 µM [inhibitor, single point]
CC(=O)Nc1nc(C=C(Cl)Cl)cs1 | inconclusive: 2.82 µM [inhibitor, partial curve]
Fc1cccc(Cl)c1Cn1nnc2c(NCc3ccncc3)ncnc21 | inconclusive: 39.8 µM [inhibitor, single point]
O=C(NCc1ccco1)c1ccc(S(=O)(=O)N2CCCCC2)cc1 | inconclusive: 35.5 µM [inhibitor, single point]
COc1ccc(C2NC(=O)NC(O)(C(F)(F)F)C2C(=O)c2ccccc2)cc1OC (centres undefined) | inactive
COc1ccccc1N1CCN(CC(O)c2ccc3cc[nH]c3c2)CC1 (centres undefined) | inconclusive: 39.8 µM [inhibitor, single point]
CCCCC/C=C\C/C=C\C/C=C\C/C=C\CCCC(=O)O[C@H](COCCCCCCCCCCCCCCCC)COP(=O)([O-])OCC[N+](C)(C)C | inactive
CCc1ccccc1NC(=S)N(CCN(C)C)C(C)c1ccccn1 (centres undefined) | inconclusive: 3.55 µM [inhibitor, full curve, poor fit]
Cc1cc(=O)oc2cc(OCC3CC(c4ccccc4Cl)=NO3)ccc12 (centres undefined) | inconclusive: 31.6 µM [inhibitor, partial curve]
CN(C)S(=O)(=O)Nc1ccc2c(c1)OCO2 | inactive

Compound | Potency
CCOC(=O)C1=C(C)NC(=O)C(C#N)C1c1ccncc1 (centres undefined) | inconclusive: 35.5 µM [inhibitor, single point]
C/C(N)=C(/C#N)C(=O)CSc1nnnn1-c1ccccc1 | inconclusive: 39.8 µM [inhibitor, single point]
COC(=O)c1cc2c(cc1NC(=O)CSCCc1ccccn1)OCO2 | inconclusive: 28.2 µM [inhibitor, single point]
Cc1ccc(C2c3sc(=O)[nH]c3SC3C4CC(C5C(=O)N(C(C)C(=O)O)C(=O)C45)C23)cc1 (centres undefined) | inactive
CCc1nnc(NC(=O)CSc2nc(C)cc(C)c2C#N)s1 | inconclusive: 25.1 µM [inhibitor, partial curve]
COC(=O)c1cc(NC(=O)c2nccnc2C(=O)O)cc(C(=O)OC)c1 | inconclusive: 25.1 µM [inhibitor, single point]
CCCNC(=O)c1cc(C)no1 | inactive
COc1ccc(-c2cc(C(=O)N3CCOCC3)c3cc(C)ccc3n2)cc1 | inconclusive: 25.1 µM [inhibitor, partial curve]
O=C(CSc1n[nH]c(-c2ccc(S(=O)(=O)NC3CCCCC3)cc2)n1)N1CCCC1 | inconclusive: 28.2 µM [inhibitor, partial curve]
COc1cc(Cn2ccnc2)c(OC)cc1Cn1ccnc1 | inactive
Cc1ccccc1Cn1ccc(NC(=O)c2cc3nc(-c4ccco4)cc(C(F)(F)F)n3n2)n1 | inconclusive: 12.6 µM [inhibitor, partial curve]
c1ccc2sc(-c3ccncc3)nc2c1 | inconclusive: 39.8 µM [inhibitor, single point]
CCOc1cc(C(c2c(C)[nH][nH]c2=O)c2c(C)[nH][nH]c2=O)ccc1OC(=O)c1cccc([N+](=O)[O-])c1 | inactive
COc1ccccc1-n1c(C)c2c(OC)cccc(=O)c2c1C | inconclusive: 35.5 µM [inhibitor, single point]
Cc1ccc(-c2ccc(/C=N/c3ncn[nH]3)o2)cc1Cl | inconclusive: 35.5 µM [inhibitor, single point]
CCC(=O)OCCNc1cc(Sc2nc3ccccc3s2)c2nonc2c1[N+](=O)[O-] | inactive
O=C(/C=C/c1ccc2c(c1)OCO2)NCc1ccc(F)cc1 | inconclusive: 20 µM [inhibitor, partial curve]
CCOC(=O)/C(C#N)=C1/C=CN(Cc2ccccc2)C=N1 | inconclusive: 39.8 µM [inhibitor, single point]
Cc1ccccc1NC(=O)Cc1c(O)c2ccccc2[nH]c1=O | inconclusive: 28.2 µM [inhibitor, partial curve]
COc1ccc(COc2cc(-c3cccc(OC)c3)nc3ccc(NC(=O)c4ccc(N(C)C)cc4)cc23)cc1 | inconclusive: 12.6 µM [inhibitor, partial curve]
CC1=Nc2ccccc2N=C(NC(=O)CSC(=S)N2CCCCC2)C1c1ccccc1 (centres undefined) | inactive
O=C(NCCN1C(=O)S/C(=C\c2cccs2)C1=O)c1ccc(=O)[nH]c1 | inactive
